# The list shows a part of the results. Each Rep nickase domain was tested in vitro on the same pool of single strands (1 h at 37 °C, 3 µM enzyme); the outer parts of the 90-letter strands are left off. Values are log2 of uncut reads against the no-enzyme pool; the lower, the more was cut; hits are not called. Because reads are shares of a total, they shift together; where an enzyme cuts many sequences, the uncut ones exceed 0.
# Legend:
# Assay in all cases: uncleaved DNA left, log2 of reads against the no-enzyme library (log2 ratio); higher = less cleavage (more negative = more Rep cleavage of the k-mer); sequences stand for … in CTCGTCCG…ACCGGAGA
# [1] = tested on: T1, Rep nickase domain of Muscovy duck circovirus
# T1 sequence (Rep 1-111, printed without the tag): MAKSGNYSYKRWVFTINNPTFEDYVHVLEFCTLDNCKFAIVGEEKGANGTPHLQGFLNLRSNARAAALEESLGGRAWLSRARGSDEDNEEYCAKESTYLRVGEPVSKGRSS
# Procedure: (§1)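 A pool of 90-nt single-stranded DNAs with seven random bases just before the constant AC of the nick site (name = the seven bases) was cut by 3 µM recombinant His6-SUMO-tagged Rep nickase domain (300 nM DNA, 50 mM HEPES pH 8.0, 50 mM NaCl, 1 mM MnCl2, 1 h, 37 °C, three replicates). Uncut DNA was amplified and sequenced.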
# [2] = tested on: T2, Rep nickase domain of banana bunchy top virus
# T2 sequence (Rep 1-94, printed without the tag): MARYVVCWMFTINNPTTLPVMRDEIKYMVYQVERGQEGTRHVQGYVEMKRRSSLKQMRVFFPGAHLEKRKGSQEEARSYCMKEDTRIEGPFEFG
# Procedure: as §1
# [3] = tested on: T3, Rep nickase domain of cabbage leaf curl virus
# T3 sequence (Rep 1-116, printed without the tag): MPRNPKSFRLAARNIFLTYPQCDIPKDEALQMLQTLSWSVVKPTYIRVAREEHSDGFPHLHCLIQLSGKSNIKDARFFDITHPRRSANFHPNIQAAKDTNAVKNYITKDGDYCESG
# Procedure: as §1
# [4] = tested on: T4, Rep nickase domain of chickpea chlorotic dwarf virus
# T4 sequence (Rep 1-124, printed without the tag): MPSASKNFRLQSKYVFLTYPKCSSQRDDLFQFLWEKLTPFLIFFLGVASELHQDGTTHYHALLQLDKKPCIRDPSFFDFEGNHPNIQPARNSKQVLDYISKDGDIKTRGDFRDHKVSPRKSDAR
# Procedure: as §1
# [5] = tested on: T5, Rep nickase domain of faba bean necrotic yellows virus
# T5 sequence (Rep 1-98, printed without the tag): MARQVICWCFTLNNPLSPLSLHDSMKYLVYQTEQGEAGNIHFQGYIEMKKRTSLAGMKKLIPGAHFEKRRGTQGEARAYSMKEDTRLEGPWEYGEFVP
# Procedure: as §1
# [6] = tested on: T6, Rep nickase domain of maize striate mosaic virus
# T6 sequence (Rep 1-117, printed without the tag): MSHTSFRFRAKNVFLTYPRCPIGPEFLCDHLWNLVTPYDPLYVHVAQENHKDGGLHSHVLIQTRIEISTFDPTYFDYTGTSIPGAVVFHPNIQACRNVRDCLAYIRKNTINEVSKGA
# Procedure: as §1
# [7] = tested on: T7, Rep nickase domain of porcine circovirus 2
# T7 sequence (Rep 2-116, printed without the tag): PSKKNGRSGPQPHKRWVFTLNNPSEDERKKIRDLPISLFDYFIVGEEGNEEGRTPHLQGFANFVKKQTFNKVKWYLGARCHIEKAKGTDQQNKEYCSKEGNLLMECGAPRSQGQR
# Procedure: as §1
# [8] = tested on: T8, Rep nickase domain of tomato golden mosaic virus
# T8 sequence (Rep 1-124, printed without the tag): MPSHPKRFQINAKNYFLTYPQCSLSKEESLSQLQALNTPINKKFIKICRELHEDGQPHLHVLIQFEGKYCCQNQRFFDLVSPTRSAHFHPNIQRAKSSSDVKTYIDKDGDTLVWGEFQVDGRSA
# Procedure: as §1
# [9] = tested on: T9, Rep nickase domain of tomato yellow leaf curl virus
# T9 sequence (Rep 1-136, printed without the tag): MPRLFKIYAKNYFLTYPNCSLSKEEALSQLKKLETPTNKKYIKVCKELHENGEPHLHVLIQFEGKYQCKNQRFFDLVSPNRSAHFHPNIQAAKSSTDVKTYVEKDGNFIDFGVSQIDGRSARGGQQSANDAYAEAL
# Procedure: as §1
# [10] = tested on: T10, Rep nickase domain of wheat dwarf virus
# T10 sequence (Rep 1-137, printed without the tag): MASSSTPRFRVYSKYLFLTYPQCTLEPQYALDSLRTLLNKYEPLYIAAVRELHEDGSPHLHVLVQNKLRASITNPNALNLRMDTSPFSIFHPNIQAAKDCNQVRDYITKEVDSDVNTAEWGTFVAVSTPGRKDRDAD
# Procedure: as §1
Sequence,uncleaved DNA left (log2) [1],uncleaved DNA left (log2) [2],uncleaved DNA left (log2) [3],uncleaved DNA left (log2) [4],uncleaved DNA left (log2) [5],uncleaved DNA left (log2) [6],uncleaved DNA left (log2) [7],uncleaved DNA left (log2) [8],uncleaved DNA left (log2) [9],uncleaved DNA left (log2) [10]
GAACTCG,-0.0814,0.0266,-0.796,-0.965,-0.0696,-0.805,-0.0303,-0.0289,-0.121,-0.152
TCATATA,-0.0515,-0.123,-0.0227,-1.76,-0.0682,-0.614,-0.218,-0.0207,-0.0459,-0.0855
TTGGCTT,0.0524,-0.0369,-0.0575,-1.26,-0.00178,-0.00102,-0.195,-0.0787,-0.0999,-0.0958
GTCGATC,-0.114,-0.128,0.221,0.759,-0.0838,1.36,-0.113,-0.127,0.0184,0.0233
CAGCTCA,0.0295,0.0378,-0.148,-2.2,0.0804,-0.427,-0.948,0.0349,0.0664,-0.0173
GGAAATT,0.0489,-0.00493,0.749,1.83,-0.000511,2.11,0.102,-0.118,0.0161,0.0591
GGGTACA,0.0203,0.189,0.841,2.03,0.144,2.29,0.213,0.00668,-0.0322,0.157
TTTGATG,-0.0829,-0.184,-0.528,-0.664,-0.0961,-1.15,-0.0625,-0.0368,-0.216,-0.0796
CTGGAAC,-0.134,0.0231,0.161,0.215,-0.153,0.251,0.0694,0.00548,0.0329,0.0442
TTTTCTT,-2.72,-0.486,-0.084,-2.36,0.0784,-0.261,-3.01,0.00486,0.0559,-0.272
AGTGCGG,0.177,0.0484,-0.0139,0.238,0.0547,0.378,0.225,0.0814,0.0427,0.0766
AGGTTGA,-0.00348,-0.0166,-0.0278,0.228,0.0631,0.00712,0.103,0.0652,-0.0367,-0.0637
TCATCAG,0.0784,0.0366,-0.697,-0.439,0.145,-1.15,0.235,0.0717,0.0817,0.0786
CGTATGA,0.164,0.0732,0.137,0.339,0.018,0.162,0.158,-0.00571,0.0911,0.135
CCACGAT,-0.218,0.0164,-0.0493,-1.1,-0.116,0.162,-0.0931,-0.168,-0.07,-0.107
TGTATCC,0.0443,0.0376,0.249,0.521,-0.0474,0.852,0.00717,-0.0342,-0.0322,-0.0163
GTTATTA,0.00356,0.0729,0.326,0.813,0.0682,1.9,0.147,0.191,0.174,0.1
ACGGCTC,-0.0836,-0.0461,-0.294,-0.0809,-0.183,-0.331,-0.0139,-0.114,-0.139,-0.339
CGGGCCA,-0.00939,0.0746,0.654,1.39,-0.0271,1.72,0.117,0.0176,-0.00477,0.132
GCGAAAA,0.0143,0.0629,0.168,0.483,0.169,0.165,0.149,-0.00242,0.132,0.149
TCCGACC,-0.0776,-0.0519,0.0891,-0.0903,-0.0149,-0.575,-0.103,-0.0245,-0.138,-0.13
CTGTGAC,-0.0329,-0.013,0.154,0.187,0.0268,-0.247,0.103,-0.0494,-0.0402,-0.128
AGGTGCT,-0.244,0.00961,-0.384,-0.519,-0.21,-0.516,-3.02,0.035,-0.0446,-0.157
GATGACT,0.231,0.0899,0.427,0.399,0.0187,1.61,0.172,0.0769,0.152,0.241
GGCTATT,-2.27,-0.102,0.421,0.719,-0.0932,1.86,-2.69,-0.0587,0.0396,-0.0174
GGAGCTG,0.0335,0.0554,0.284,1.34,0.0266,1.69,0.154,0.208,-0.114,0.0968
TGCCTGT,-0.21,-0.158,-0.151,0.0989,-0.1,0.5,-0.151,-0.102,-0.157,-0.0575
TTTATTG,0.105,-0.0502,-0.471,-0.658,0.127,-1.03,0.157,0.0575,0.0688,-0.0397
GCCGCAG,-0.0669,0.0103,-0.214,-0.263,0.0215,-0.504,0.316,0.14,0.054,-0.0811
